Measurements reported in patent US20240076343A1.

B1: 1H3-hIgG1-L6-hIL-2 (I92D/Y45E) (protein)
heavy: EVQLVESGGGLVQPGRSLKLSCAVSGFTFSDYAMAWVRQAPKKGLEWVATISYDGSRTYYRDSVKGRFTISRDNAKITLYLQMDSLRSEDTATYYCARHGSGYFDYWGQGVMVTVSS[not shown - about 450 residues with a human IgG1 Fc and changes]
light: DTVLTQSPALAVSPGERVTISCRASESVRTGVHWYQQKPGQQPKLLIYGASNLESGVPARFSGSGSGTDFTLTIDPVEADDTATYFCQQSWNDPFTFGSGTKLEIKRTVAAPSVFIFPPSDEQLKSGTASVVCLLNNFYPREAKVQWKVDNALQSGNSQESVTEQDSKDSTYSLSSTLTLSKADYEKHKVYACEVTHQGLSSPVTKSFNRGEC
B2: 1H3-hIgG1-L6-hIL-2 (I92D/Y45H) (protein)
heavy: EVQLVESGGGLVQPGRSLKLSCAVSGFTFSDYAMAWVRQAPKKGLEWVATISYDGSRTYYRDSVKGRFTISRDNAKITLYLQMDSLRSEDTATYYCARHGSGYFDYWGQGVMVTVSS[not shown - about 450 residues with a human IgG1 Fc and changes]
light: B1 light
B3: 1H3-hIgG1-L6-hIL-2 (I92D/Y45I) (protein)
heavy: EVQLVESGGGLVQPGRSLKLSCAVSGFTFSDYAMAWVRQAPKKGLEWVATISYDGSRTYYRDSVKGRFTISRDNAKITLYLQMDSLRSEDTATYYCARHGSGYFDYWGQGVMVTVSS[not shown - about 450 residues with a human IgG1 Fc and changes]
light: B1 light
B4: 1H3-hIgG1-L6-hIL-2 (I92D/Y45L) (protein)
heavy: EVQLVESGGGLVQPGRSLKLSCAVSGFTFSDYAMAWVRQAPKKGLEWVATISYDGSRTYYRDSVKGRFTISRDNAKITLYLQMDSLRSEDTATYYCARHGSGYFDYWGQGVMVTVSS[not shown - about 450 residues with a human IgG1 Fc and changes]
light: B1 light
B5: 1H3-hIgG1-L6-hIL-2 (I92D/Y45P) (protein)
heavy: EVQLVESGGGLVQPGRSLKLSCAVSGFTFSDYAMAWVRQAPKKGLEWVATISYDGSRTYYRDSVKGRFTISRDNAKITLYLQMDSLRSEDTATYYCARHGSGYFDYWGQGVMVTVSS[not shown - about 450 residues with a human IgG1 Fc and changes]
light: B1 light
B6: 1H3-hIgG1-L6-hIL-2 (I92D/Y45T) (protein)
heavy: EVQLVESGGGLVQPGRSLKLSCAVSGFTFSDYAMAWVRQAPKKGLEWVATISYDGSRTYYRDSVKGRFTISRDNAKITLYLQMDSLRSEDTATYYCARHGSGYFDYWGQGVMVTVSS[not shown - about 450 residues with a human IgG1 Fc and changes]
light: B1 light
B7: 1H3-hIgG1-L6-hIL-2 (I92D/Y45W) (protein)
heavy: EVQLVESGGGLVQPGRSLKLSCAVSGFTFSDYAMAWVRQAPKKGLEWVATISYDGSRTYYRDSVKGRFTISRDNAKITLYLQMDSLRSEDTATYYCARHGSGYFDYWGQGVMVTVSS[not shown - about 450 residues with a human IgG1 Fc and changes]
light: B1 light
B8: 1H3-hIgG1-L6-hIL-2 (I92D/Y45V) (protein)
heavy: EVQLVESGGGLVQPGRSLKLSCAVSGFTFSDYAMAWVRQAPKKGLEWVATISYDGSRTYYRDSVKGRFTISRDNAKITLYLQMDSLRSEDTATYYCARHGSGYFDYWGQGVMVTVSS[not shown - about 450 residues with a human IgG1 Fc and changes]
light: B1 light
B9: 1H3-hIgG1-L6-hIL-2 (R38E/D84A) (protein)
heavy: EVQLVESGGGLVQPGRSLKLSCAVSGFTFSDYAMAWVRQAPKKGLEWVATISYDGSRTYYRDSVKGRFTISRDNAKITLYLQMDSLRSEDTATYYCARHGSGYFDYWGQGVMVTVSS[not shown - about 450 residues with a human IgG1 Fc and changes]
light: B1 light
B10: 1H3-hIgG1-L6-hIL-2 (R38E/D84N) (protein)
heavy: EVQLVESGGGLVQPGRSLKLSCAVSGFTFSDYAMAWVRQAPKKGLEWVATISYDGSRTYYRDSVKGRFTISRDNAKITLYLQMDSLRSEDTATYYCARHGSGYFDYWGQGVMVTVSS[not shown - about 450 residues with a human IgG1 Fc and changes]
light: B1 light
B11: 1H3-hIgG1-L6-hIL-2 (R38E/D84Q) (protein)
heavy: EVQLVESGGGLVQPGRSLKLSCAVSGFTFSDYAMAWVRQAPKKGLEWVATISYDGSRTYYRDSVKGRFTISRDNAKITLYLQMDSLRSEDTATYYCARHGSGYFDYWGQGVMVTVSS[not shown - about 450 residues with a human IgG1 Fc and changes]
light: B1 light
B12: 1H3-hIgG1-L6-hIL-2 (R38E/D84E) (protein)
heavy: EVQLVESGGGLVQPGRSLKLSCAVSGFTFSDYAMAWVRQAPKKGLEWVATISYDGSRTYYRDSVKGRFTISRDNAKITLYLQMDSLRSEDTATYYCARHGSGYFDYWGQGVMVTVSS[not shown - about 450 residues with a human IgG1 Fc and changes]
light: B1 light
B13: 1H3-hIgG1-L6-hIL-2 (R38E/D84G) (protein)
heavy: EVQLVESGGGLVQPGRSLKLSCAVSGFTFSDYAMAWVRQAPKKGLEWVATISYDGSRTYYRDSVKGRFTISRDNAKITLYLQMDSLRSEDTATYYCARHGSGYFDYWGQGVMVTVSS[not shown - about 450 residues with a human IgG1 Fc and changes]
light: B1 light
B14: 1H3-hIgG1-L6-hIL-2 (R38E/D84H) (protein)
heavy: EVQLVESGGGLVQPGRSLKLSCAVSGFTFSDYAMAWVRQAPKKGLEWVATISYDGSRTYYRDSVKGRFTISRDNAKITLYLQMDSLRSEDTATYYCARHGSGYFDYWGQGVMVTVSS[not shown - about 450 residues with a human IgG1 Fc and changes]
light: B1 light
B15: 1H3-hIgG1-L6-hIL-2 (R38E/D84I) (protein)
heavy: EVQLVESGGGLVQPGRSLKLSCAVSGFTFSDYAMAWVRQAPKKGLEWVATISYDGSRTYYRDSVKGRFTISRDNAKITLYLQMDSLRSEDTATYYCARHGSGYFDYWGQGVMVTVSS[not shown - about 450 residues with a human IgG1 Fc and changes]
light: B1 light
B16: 1H3-hIgG1-L6-hIL-2 (R38E/D84L) (protein)
heavy: EVQLVESGGGLVQPGRSLKLSCAVSGFTFSDYAMAWVRQAPKKGLEWVATISYDGSRTYYRDSVKGRFTISRDNAKITLYLQMDSLRSEDTATYYCARHGSGYFDYWGQGVMVTVSS[not shown - about 450 residues with a human IgG1 Fc and changes]
light: B1 light
B17: 1H3-hIgG1-L6-hIL-2 (R38E/D84M) (protein)
heavy: EVQLVESGGGLVQPGRSLKLSCAVSGFTFSDYAMAWVRQAPKKGLEWVATISYDGSRTYYRDSVKGRFTISRDNAKITLYLQMDSLRSEDTATYYCARHGSGYFDYWGQGVMVTVSS[not shown - about 450 residues with a human IgG1 Fc and changes]
light: B1 light

The binders below were run against high-affinity hIL-2 receptor (IL-2Rαβγ) (human) (UniProt P01589) (assay: cell-based or functional assay).
Sequence of UniProt P01589 (P01589 22-272, chain 1 of 3): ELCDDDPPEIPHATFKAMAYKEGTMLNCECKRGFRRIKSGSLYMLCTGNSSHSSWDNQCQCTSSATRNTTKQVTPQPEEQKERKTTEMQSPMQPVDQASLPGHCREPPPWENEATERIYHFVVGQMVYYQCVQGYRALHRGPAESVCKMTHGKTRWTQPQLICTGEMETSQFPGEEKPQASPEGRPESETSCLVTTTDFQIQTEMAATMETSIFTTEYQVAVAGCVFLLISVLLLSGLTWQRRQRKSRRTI
Sequence of UniProt P01589 (chain, as listed by the source, chain 2 of 3): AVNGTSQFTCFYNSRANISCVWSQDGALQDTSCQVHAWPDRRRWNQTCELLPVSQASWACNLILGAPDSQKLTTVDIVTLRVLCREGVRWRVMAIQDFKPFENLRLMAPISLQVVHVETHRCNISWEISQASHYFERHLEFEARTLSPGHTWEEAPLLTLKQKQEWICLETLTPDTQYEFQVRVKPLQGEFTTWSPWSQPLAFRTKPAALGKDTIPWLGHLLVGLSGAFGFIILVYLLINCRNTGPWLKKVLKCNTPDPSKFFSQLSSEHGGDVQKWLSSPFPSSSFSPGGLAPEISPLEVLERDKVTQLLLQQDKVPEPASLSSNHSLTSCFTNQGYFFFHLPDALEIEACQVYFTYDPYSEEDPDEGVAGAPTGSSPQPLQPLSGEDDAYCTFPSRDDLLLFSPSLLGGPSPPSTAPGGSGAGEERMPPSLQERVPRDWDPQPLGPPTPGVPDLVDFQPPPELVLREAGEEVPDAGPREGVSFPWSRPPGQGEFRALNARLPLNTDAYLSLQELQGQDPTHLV
Sequence of UniProt P01589 (chain, as listed by the source, chain 3 of 3): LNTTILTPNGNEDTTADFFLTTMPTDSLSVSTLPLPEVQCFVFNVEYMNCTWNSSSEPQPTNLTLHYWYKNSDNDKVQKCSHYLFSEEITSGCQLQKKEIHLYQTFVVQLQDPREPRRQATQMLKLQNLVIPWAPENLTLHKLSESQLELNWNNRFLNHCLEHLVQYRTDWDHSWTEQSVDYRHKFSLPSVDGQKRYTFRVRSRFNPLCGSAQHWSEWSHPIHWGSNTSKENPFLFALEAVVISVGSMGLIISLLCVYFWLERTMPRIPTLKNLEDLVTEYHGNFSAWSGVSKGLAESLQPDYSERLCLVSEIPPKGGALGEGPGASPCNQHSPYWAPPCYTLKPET
Binder B1 has a Fold change from hIL-2 (NK-92), pSTAT5 fixed conc. of 27 fold.
B2 showed a Fold change from hIL-2 (NK-92), pSTAT5 fixed conc. of 7 fold.
For B3, the Fold change from hIL-2 (NK-92), pSTAT5 fixed conc. was 20 fold.
B4 was tested, and the Fold change from hIL-2 (NK-92), pSTAT5 fixed conc. was 5 fold.
In the case of B5, the Fold change from hIL-2 (NK-92), pSTAT5 fixed conc. is reported as 28 fold.
Binder B6 has a Fold change from hIL-2 (NK-92), pSTAT5 fixed conc. of 28 fold.
Binder B7 has a Fold change from hIL-2 (NK-92), pSTAT5 fixed conc. of 27 fold.
In the case of B8, the Fold change from hIL-2 (NK-92), pSTAT5 fixed conc. is reported as 28 fold.
B9 showed a Fold change from hIL-2 (NK-92), pSTAT5 fixed conc. of 18 fold.
For B10, the Fold change from hIL-2 (NK-92), pSTAT5 fixed conc. was 18 fold.
With B11 the Fold change from hIL-2 (NK-92), pSTAT5 fixed conc. was 18 fold.
B12 was tested, and the Fold change from hIL-2 (NK-92), pSTAT5 fixed conc. was 16 fold.
Binder B13 has a Fold change from hIL-2 (NK-92), pSTAT5 fixed conc. of 18 fold.
B14 gave a Fold change from hIL-2 (NK-92), pSTAT5 fixed conc. of 19 fold.
B15 was tested, and the Fold change from hIL-2 (NK-92), pSTAT5 fixed conc. was 20 fold.
B16 gave a Fold change from hIL-2 (NK-92), pSTAT5 fixed conc. of 19 fold.
B17 was tested, and the Fold change from hIL-2 (NK-92), pSTAT5 fixed conc. was 20 fold.

What follows are binders tested against intermediate affinity hIL-2 receptor complex (IL-2Rβγ) (human) (UniProt P14784) (assay: cell-based or functional assay).
Sequence of UniProt P14784 (P14784 27-551, chain 1 of 2): as the sequence (chain, as listed by the source, chain 2 of 3) above
Sequence of UniProt P14784 (chain, as listed by the source, chain 2 of 2): as the sequence (chain, as listed by the source, chain 3 of 3) above
B1 gave a Fold change from hIL-2 (TF1 + IL-2Rβ), pSTAT5 fixed conc. of 4 fold.
B2 was tested, and the Fold change from hIL-2 (TF1 + IL-2Rβ), pSTAT5 fixed conc. was 3 fold.
With B3 the Fold change from hIL-2 (TF1 + IL-2Rβ), pSTAT5 fixed conc. was 4 fold.
B4 gave a Fold change from hIL-2 (TF1 + IL-2Rβ), pSTAT5 fixed conc. of 3 fold.
Binder B5 has a Fold change from hIL-2 (TF1 + IL-2Rβ), pSTAT5 fixed conc. of 4 fold.
B6 was tested, and the Fold change from hIL-2 (TF1 + IL-2Rβ), pSTAT5 fixed conc. was 4 fold.
B7 was tested, and the Fold change from hIL-2 (TF1 + IL-2Rβ), pSTAT5 fixed conc. was 4 fold.
B8 showed a Fold change from hIL-2 (TF1 + IL-2Rβ), pSTAT5 fixed conc. of 5 fold.
For B9, the Fold change from hIL-2 (TF1 + IL-2Rβ), pSTAT5 fixed conc. was 1 fold.
In the case of B10, the Fold change from hIL-2 (TF1 + IL-2Rβ), pSTAT5 fixed conc. is reported as 1 fold.
In the case of B11, the Fold change from hIL-2 (TF1 + IL-2Rβ), pSTAT5 fixed conc. is reported as 1 fold.
B12 gave a Fold change from hIL-2 (TF1 + IL-2Rβ), pSTAT5 fixed conc. of 1 fold.
B13 gave a Fold change from hIL-2 (TF1 + IL-2Rβ), pSTAT5 fixed conc. of 1 fold.
In the case of B14, the Fold change from hIL-2 (TF1 + IL-2Rβ), pSTAT5 fixed conc. is reported as 2 fold.
B15 gave a Fold change from hIL-2 (TF1 + IL-2Rβ), pSTAT5 fixed conc. of 1 fold.
B16 gave a Fold change from hIL-2 (TF1 + IL-2Rβ), pSTAT5 fixed conc. of 1 fold.
B17 gave a Fold change from hIL-2 (TF1 + IL-2Rβ), pSTAT5 fixed conc. of 2 fold.
